# Results as given in the supplement of paper PMC12217912.
# The list shows a part of the results. Sequences were assembled here from the parent chain. Values near 0.05 are background.
# B1: TEV protease; numbered along this chain (parent)
# chain: MGESLFKGPRDYNPISSSICHLTNESDGHTTSLYGIGFGPFIITNKHLFRRNNGTLVVQSLHGVFKVKDTTTLQQHLVDGRDMIIIRMPKDFPPFPQKLKFREPQREERICLVTTNFQTKSMSSMVSDTSCTFPSGDGIFWKHWIQTKDGQCGSPLVSTRDGFIVGIHSASNFTNTNNYFTSVPKNFMELLTNQEAQQWVSGWRLNADSVLWGGHKVFMVKPEEPFQPVKEATQL
# Variants of: B1
# Test: raw area under fraction-flipped curve 0-4 h after induction (AUC4h, not background-subtracted), DNA-recorder readout of cleavage of the substrate (dimensionless); higher = more cleavage of the substrate by the protease variant
# Details: temperature: 34 °C; time window: 0-4 h after rhamnose induction
# Procedure: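 In vivo DNA recorder in E. coli TOP10(DE3) ΔrhaA at 34 °C. Each TEVp single-site mutant (parent TEVp 0) is paired with a single-site variant of the 7-mer TEVs (canonical ENLYFQ|S). The substrate sits between flexible linkers in a Bxb1-sfGFP-TEVs-SsrA fusion, so cleavage stabilises Bxb1 and speeds flipping of a recombination array, read by NGS. The value is the raw area under the fraction-flipped curve over 0-4 h after rhamnose induction (AUC4h), with ≥20 reads per time point. It is not background-subtracted; inactive controls average about 0.047.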
# 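Note: Bxb1 expression induced with 0.2% (w/v) L-rhamnose at OD600 near 0.5, cultures sampled hourly, flipped fraction per protease–substrate barcode pair counted by paired-end Illumina sequencing.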
Variant,area with substrate ENLCFQS,area with substrate ENLDFQS,area with substrate ENLEFQS,area with substrate ENLGFQS,area with substrate ENLHFQS,area with substrate ENLKFQS,area with substrate ENLLFQS,area with substrate ENLMFQS,area with substrate ENLPFQS,area with substrate ENLRFQS,area with substrate ENLSFQS,area with substrate ENLWFQS,area with substrate ENLFFQS,area with substrate ENLIFQS,area with substrate ENLNFQS,area with substrate ENLQFQS,area with substrate ENLTFQS,area with substrate ENLVFQS,area with substrate ENLAFQS
T31W,0.0657,0.0795,0.0591,0.06,0.0712,0.0676,0.0766,0.0776,0.066,0.081,0.0532,0.0512,–,–,–,–,–,–,–
H21Y,0.0757,0.0684,0.0594,–,0.0682,0.0706,0.0679,0.0597,0.0533,–,0.0849,0.0534,0.0735,0.074,0.0532,0.0576,–,–,–
G2M,0.0345,–,–,–,0.103,–,–,–,–,–,–,–,–,–,0.0689,–,–,–,–
H47L,0.0604,0.0666,0.0554,–,0.062,0.0662,0.054,0.0614,0.0773,0.0566,0.0697,0.0639,0.0661,0.117,0.0532,–,0.0371,0.0549,–
H47K,0.0566,0.0542,0.0645,–,–,0.0639,0.0557,0.0641,0.071,0.0512,0.0754,0.0566,0.0627,0.0598,0.0707,0.0625,0.0837,–,–
H47N,0.0642,0.0659,0.0563,–,0.0618,0.0644,0.0478,0.0643,0.0421,–,0.0647,0.0595,0.0636,–,0.0742,0.0593,–,0.0463,–
P222S,–,0.0632,0.081,–,0.0523,0.0804,0.0825,0.0806,0.0613,0.0733,0.0604,0.0722,0.081,–,0.0618,0.0569,–,–,0.0611
P222C,0.0678,0.0571,0.0559,0.0613,0.0643,0.0507,0.0704,–,–,0.0458,–,0.0746,0.0733,0.0737,0.0589,–,–,–,0.0941
R10V,0.0637,0.0762,0.0737,–,0.0786,0.0767,–,0.0554,0.0567,0.074,0.0673,0.0654,0.0765,–,0.0719,0.0704,–,0.0027,–
T129W,0.07,0.0668,–,0.0499,0.0483,0.0765,0.0675,–,0.0644,0.0935,–,0.0694,0.0785,0.079,–,–,–,0.0883,–
T129I,0.0708,0.0643,0.0501,–,0.051,0.0647,0.0694,–,0.0719,0.0618,–,–,0.0615,–,–,–,0.0645,–,–
P155S,0.0579,0.0589,0.0589,0.0606,0.0678,0.0662,0.0637,0.0537,0.0605,0.0519,0.0501,–,0.0562,0.0542,0.0546,0.053,–,0.065,–
T233K,0.0747,–,–,0.0651,0.073,0.0934,0.109,–,0.0621,–,0.055,0.0616,0.0928,–,0.0635,0.0426,–,–,0.0669
T233H,–,0.0598,–,–,–,–,0.0777,0.114,0.0637,0.0752,0.0702,–,–,0.0986,0.0843,–,–,0.108,0.0645
M83T,0.0748,0.0666,0.0627,–,0.0493,0.0648,–,–,0.0621,0.0311,0.0772,–,0.0666,0.0616,0.0614,0.0464,–,0.0607,–
M83W,0.044,0.0691,0.0635,–,0.0638,0.0526,–,–,0.103,–,0.0614,–,0.0672,–,–,0.0681,–,0.0722,–
S123A,0.0608,0.0549,0.078,0.0407,–,0.0797,0.0897,–,–,0.0809,0.0733,0.0768,0.078,0.0938,0.0381,–,0.0705,–,–
S123K,0.0777,–,0.0609,0.0669,0.0798,0.0813,–,0.0621,0.0732,–,0.0782,0.0589,0.089,0.0906,0.0566,0.0641,0.066,0.122,–
T71L,0.0542,0.0614,0.0613,0.0622,0.0761,0.0886,0.0912,–,–,0.0753,–,0.0672,0.0806,0.0833,0.0707,–,–,–,–
K100L,0.0548,0.0652,0.0016,–,0.0817,0.0772,0.102,–,0.0468,–,–,–,0.0573,–,0.048,–,–,–,–
K100R,0.084,–,–,–,0.0879,–,–,–,–,–,–,0.0639,0.0992,0.0803,0.0694,0.0608,0.0923,–,–
F41W,0.0658,0.0632,0.0601,–,0.0569,0.0672,0.0614,–,0.0695,–,0.0568,0.0769,0.0757,0.0651,0.0655,0.0651,0.0623,0.0669,–
C111T,0.0681,0.059,0.0985,0.0803,0.0761,–,0.067,–,0.0673,0.0662,0.061,0.0708,0.0923,0.0926,0.0665,–,–,–,–
S32H,0.0775,0.0625,0.0577,0.0627,0.0708,0.0812,0.0453,–,0.0575,0.0615,0.0609,0.0676,0.0887,0.0754,0.0485,0.0681,0.0662,–,–
M219V,–,–,0.07,–,0.0731,0.0785,–,0.0756,0.0557,0.0726,0.0531,–,0.0769,0.088,0.0782,0.0603,0.0604,–,0.0718
G162M,0.0748,0.0484,–,–,0.0561,–,0.0686,–,–,0.0625,–,–,0.0617,0.0843,0.0731,0.0567,0.068,0.0774,–
G37P,0.0439,0.0428,0.0627,–,0.052,0.0575,0.0363,0.0548,–,–,0.0489,–,0.057,0.0749,0.092,0.054,0.0706,–,–
